The other results are listed elsewhere or left out.

The test relates to PF3D7_0420300 AP2 domain 1 (GST-tagged). The experiment in a line: gcPBM binding intensity (ln(normalized median fluorescence intensity)); higher = stronger DNA binding. A digest of the protocol: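 GST-tagged P. falciparum DNA-binding domains, expressed in E. coli (about 25 μg on average), were applied for 1 h to an Agilent 4 × 180k array of primer-extended double-stranded 36-bp intergenic genomic probes plus negative controls. The binding buffer was 1× PBS with 1% milk, 0.2 mg/ml BSA, 0.5% salmon testes DNA and 0.03% Triton X-100. Bound protein was detected with Alexa488 anti-GST antibody and scanned at 488 nm. Binding intensity is the highest Masliner-normalised natural-log median intensity across replicate spots of either probe orientation.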
“AGTATAAATATATTATGTACATATATATTATACTTA [XGTACX_site2623]”: the “gcPBM binding intensity (ln)” value was determined as 9.09.
With “TTATATACATTAAATGAACACACATAAATAAATTAC [CACACA_site8927]”, the “gcPBM binding intensity (ln)” value is 9.68.
Consider “ATTTTTTTTATGTATTATGCTTTTATATCCTTCATA [CACACA_negctrl_site1244]”, for which the “gcPBM binding intensity (ln)” value was found to be 9.67.
In the case of “ATTTCTTTTACATTTACATGCAATGCTCTATAGATA [TGCATGCA_site62]”, the “gcPBM binding intensity (ln)” value was determined as 9.29.
As for “AAAGAATTTGCATATACACACAAAAAAATAAATACA [CACACA_site4373]”, the “gcPBM binding intensity (ln)” value worked out at 9.64.
In the case of “CTTCTTTTGTGATAAAGTACAAATATTTTGAAATAT [XGTACX_site1156]”, the “gcPBM binding intensity (ln)” value was determined as 8.93.
“TTTTCTATAAGATTTGCACACAACTTATTCTATTAA [CACACA_site3752]”: the “gcPBM binding intensity (ln)” value was 9.41.
In the case of “ATAAATAAATAAATAAATATATATATGAAATAATGT [TGCATGCA_negctrl_site12]”, the “gcPBM binding intensity (ln)” value was 9.49.
Under “AAAAAATATAAAACGAGTACATATATAATAAGCAAA [XGTACX_site1360]” stands 9.74; under “TTTATTCTCCACACCCGTACACATTTTTTTTGCATA [XGTACX_site5615]”, 9.71; under “AAAAAAAAAAAAAACACACACACACGCAGATATATA [CACACA_site6672]”, 10.1.
“ATTATAGACAACTCTTTTTCTAAACTATTTTATTTT [CACACA_negctrl_site1754]”: the “gcPBM binding intensity (ln)” value is 9.43.
As to “CATAATATTTGTGAAAGTACTTATTTTACAATAGGG [XGTACX_site5004]”, the “gcPBM binding intensity (ln)” value was 9.1.
For “TTTCTTAAAATATAAAGTACTAAAATGAAAATATAT [XGTACX_site2173]”, the “gcPBM binding intensity (ln)” value worked out at 9.04.
On to “AAATAAAGAAATATATGTACATATATATATATATAT [XGTACX_site5131]”, for which the “gcPBM binding intensity (ln)” value is 9.33.
Then “TAGCCAAAAGGATATGCACACACACCCACATATATA [CACACA_site8684]”, with 9.87; and “TAAGATCCTTAAAACGCATGCAGTATTTTTATTTCT [TGCATGCA_site532]”, with 9.04; and “CATATAATTATTTTCACACATATAACTACATCTATA [CACACA_site5915]”, with 9.36.
With “ATATAAATAAAAAAAAGTACATAATATATAAAAATA [XGTACX_site3065]”, the “gcPBM binding intensity (ln)” value was determined as 9.56.
For the sequence “CTTTTACGTTTAGGATGTACATTTAAAAAAAAAGAA [XGTACX_site8032]”, the “gcPBM binding intensity (ln)” value came out at 8.91.
For “AATAAATATTAAATGACAAAAAAAAAAAAAAAAGGG [XGTACX_negctrl_site15]”, the “gcPBM binding intensity (ln)” value came to 9.71.
As to “TATAATCCATAAGAAGCACACACATATATATATATT [CACACA_site8394]”, the “gcPBM binding intensity (ln)” value is 9.76.
Consider “TTAAGATGCATAAATACATGCAAAGTAAATAATTCT [TGCATGCA_site517]”, for which the “gcPBM binding intensity (ln)” value was 9.1.
Take “TTAGCAGGACGTTTGGTGCACGTACTGTTTTTCTTT [GTGCAC_site9856]”: the “gcPBM binding intensity (ln)” value worked out at 9.27.
As for “TATATATATATATATATATATATATATATATATATT [CACACA_negctrl_site1440]”, the “gcPBM binding intensity (ln)” value came to 8.8.
Take “CATTGACCATTAATTTGTACACAAGGGGAAATGAGG [XGTACX_site1756]”: the “gcPBM binding intensity (ln)” value amounted to 9.24.
In the case of “TCTTTCTGCTCTTATACACACAAATAAAGATTTTTT [CACACA_site2700]”, the “gcPBM binding intensity (ln)” value is 9.51.
For “ATGAAATTTTCATATTGTACTATTAAAAATATATTT [XGTACX_site1989]”, the “gcPBM binding intensity (ln)” value was found to be 9.
Turning to “TGTAGATTTTGTAACACACACATATAAATACAGATA [CACACA_site5343]”, the “gcPBM binding intensity (ln)” value was 9.73.
Under “TAAGGGATATGTATATGTACATACAAATATATATAA [XGTACX_site2892]” stands 9.11.
Then “AAATGTAATAAATATACACACACAAATATATATATA [CACACA_site8754]”, with 9.91; and “TTTGCTTCGATATATTCACACATTTTTTTTCTTATT [CACACA_site4499]”, with 9.61; and “AATTTCATTTTTAGAAGTACATTTATATTAAAAATC [XGTACX_site2888]”, with 8.81.
As for “GACACCCATAAATATACACACGCACAACACAAAATA [CACACA_site8944]”, the “gcPBM binding intensity (ln)” value was 9.59.
Under “CTTACCAAAAAACACACACACACAAAATATATAAAT [CACACA_site1870]” stands 10.3; under “TTATTTTTTAGTAGTACACACTTTTTGTACCTTTTA [CACACA_site4503]”, 9.45.
As for “AATAAAAAAAAAAAAAAAAAAAAAAAGACACTAAAA [CACACA_negctrl_site1075]”, the “gcPBM binding intensity (ln)” value came to 9.33.
Turning to “CTAAAAGAACATGTGTGTACTTATGTTCTCTTTTTT [XGTACX_site5983]”, the “gcPBM binding intensity (ln)” value turned out to be 9.23.
Under “TATTCCAAAAATGTGTGTACATAAATACAATATTAT [XGTACX_site2653]” stands 9.48.
For the sequence “AAAAAGAAGAATAATACACACAAATTATTTTATATA [CACACA_site1919]”, the “gcPBM binding intensity (ln)” value worked out at 9.64.
Take “TATAATAAATGGACGGTGCGACATGACCATATGTGT [GTGCAC_site9476]”: the “gcPBM binding intensity (ln)” value worked out at 9.56.
On to “ATAATATATATACAAACACACAATTGCGTCCACATT [CACACA_site8515]”, for which the “gcPBM binding intensity (ln)” value worked out at 9.72.
For the sequence “TTATTTTCTTTTTCTTGTACACACATAATATGGATG [XGTACX_site1481]”, the “gcPBM binding intensity (ln)” value came out at 9.69.
Take “TTGTTAATAAAAATATTGGAAAGTTTATAAAATTTT [CACACA_negctrl_site1487]”: the “gcPBM binding intensity (ln)” value is 8.9.

These data come from the supplement of paper PMC11417369.
